# According to the supplement of paper PMC8728848:
# Some of the results follow.
# B1: PILRa (Homo sapiens), Q9UKJ1 (protein)
# chain: MGRPLLLPLLPLLLPPAFLQPSGSTGSGPSYLYGVTQPKHLSASMGGSVEIPFSFYYPWELATAPDVRISWRRGHFHRQSFYSTRPPSIHKDYVNRLFLNWTEGQKSGFLRISNLQKQDQSVYFCRVELDTRSSGRQQWQSIEGTKLSITQAVTTTTQRPSSMTTTWRLSSTTTTTGLRVTQGKRRSDSWHISLETAVGVAVAVTVLGIMILGLICLLRWRRRKGQQRTKATTPAREPFQNTEEPYENIRNEGQNTDPKLNPKDDGIVYASLALSSSTSPRAPPSHRPLKSPQNETLYSVLKA
# Assays:
# Experiment in all cases: glycan array binding signal (z-score within array); higher = stronger binding
# Conditions in all cases: glycan notation: IUPAC condensed, linker removed
# Gal6S(b1-4)Glc6S = target: Gal6S(b1-4)Glc6S
# In short: (§1)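 The binding signal is a Z-score computed within each array and averaged over linkers. Arrays of the same protein sequence at different concentrations or buffers were also averaged together. Data originate from 3228 arrays in the Consortium for Functional Glycomics database, kept only where the protein sequence was available.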
# Gal6S(b1-4)GlcNAc = target: Gal6S(b1-4)GlcNAc
# In short: as §1
# Gal6S(b1-4)GlcNAc6S = target: Gal6S(b1-4)GlcNAc6S
# In short: as §1
# GalNAc(a1-3)Gal = target: GalNAc(a1-3)Gal
# In short: as §1
# GalNAc(a1-3)GalNAc = target: GalNAc(a1-3)GalNAc
# In short: as §1
# [1] = target: GalNAc(a1-3)GalNAc(a1-3)Gal(a1-4)Gal(b1-4)GlcNAc
# In short: as §1
# [2] = target: GalNAc(a1-3)GalNAc(b1-3)Gal(a1-4)Gal(b1-4)Glc
# In short: as §1
# GalNAc(b1-3)Gal = target: GalNAc(b1-3)Gal
# In short: as §1
# [3] = target: GalNAc(b1-3)Gal(a1-4)Gal(b1-4)GlcNAc
# In short: as §1
# [4] = target: GalNAc(b1-3)Gal(a1-4)Gal(b1-4)GlcNAc(b1-3)Gal(b1-4)Glc
# In short: as §1
# [5] = target: GalNAc(b1-3)Gal(a1-6)Gal(b1-4)Glc
# In short: as §1
# GalNAc(b1-3)GalNAc = target: GalNAc(b1-3)GalNAc
# In short: as §1
# GalNAc(b1-4)GlcNAc = target: GalNAc(b1-4)GlcNAc
# In short: as §1
# [6] = target: GalNAc(b1-4)GlcNAc(b1-2)Man(a1-3)[GalNAc(b1-4)GlcNAc(b1-2)Man(a1-6)]Man(b1-4)GlcNAc(b1-4)GlcNAc
# In short: as §1
# GalNAc(b1-6)GalNAc = target: GalNAc(b1-6)GalNAc
# In short: as §1
# Glc(a1-4)Glc = target: Glc(a1-4)Glc
# In short: as §1
# Glc(a1-6)Glc(a1-6)Glc = target: Glc(a1-6)Glc(a1-6)Glc
# In short: as §1
# Glc(b1-4)Glc = target: Glc(b1-4)Glc
# In short: as §1
# Glc(b1-6)Glc = target: Glc(b1-6)Glc
# In short: as §1
# GlcA(b1-3)Gal = target: GlcA(b1-3)Gal
# In short: as §1
# GlcA(b1-3)GlcNAc = target: GlcA(b1-3)GlcNAc
# In short: as §1
# GlcA(b1-6)Gal = target: GlcA(b1-6)Gal
# In short: as §1
# [7] = target: GlcNAc(a1-3)Gal(b1-4)GlcNAc
# In short: as §1
# [8] = target: GlcNAc(a1-4)Gal(b1-3)GlcNAc
# In short: as §1
# [9] = target: GlcNAc(a1-4)Gal(b1-4)GalNAc
# In short: as §1
# [10] = target: GlcNAc(a1-4)Gal(b1-4)GlcNAc
# In short: as §1
# [11] = target: GlcNAc(a1-4)Gal(b1-4)GlcNAc(b1-3)Gal(b1-4)Glc
# In short: as §1
# [12] = target: GlcNAc(a1-4)Gal(b1-4)GlcNAc(b1-3)Gal(b1-4)GlcNAc
# In short: as §1
# [13] = target: GlcNAc(a1-4)Gal(b1-4)GlcNAc(b1-3)Gal(b1-4)GlcNAc(b1-3)Gal(b1-4)GlcNAc
# In short: as §1
# [14] = target: GlcNAc(a1-4)Gal(b1-4)GlcNAc(b1-3)Gal(b1-4)[Fuc(a1-3)]GlcNAc(b1-3)Gal(b1-4)[Fuc(a1-3)]GlcNAc
# In short: as §1
# [15] = target: GlcNAc(a1-6)Gal(b1-4)GlcNAc
# In short: as §1
# [16] = target: GlcNAc(b1-2)Gal(b1-3)GalNAc
# In short: as §1
# [17] = target: GlcNAc(b1-2)Man(a1-3)[GlcNAc(b1-2)Man(a1-6)]Man(b1-4)GlcNAc(b1-4)GlcNAc
# In short: as §1
# [18] = target: GlcNAc(b1-2)Man(a1-3)[GlcNAc(b1-2)Man(a1-6)]Man(b1-4)GlcNAc(b1-4)[Fuc(a1-6)]GlcNAc
# In short: as §1
# [19] = target: GlcNAc(b1-2)Man(a1-3)[GlcNAc(b1-4)][GlcNAc(b1-2)Man(a1-6)]Man(b1-4)GlcNAc(b1-4)GlcNAc
# In short: as §1
# [20] = target: GlcNAc(b1-2)[GlcNAc(b1-4)]Man(a1-3)[GlcNAc(b1-2)Man(a1-6)]Man(b1-4)GlcNAc(b1-4)GlcNAc
# In short: as §1
# [21] = target: GlcNAc(b1-2)[GlcNAc(b1-4)]Man(a1-3)[GlcNAc(b1-4)][GlcNAc(b1-2)Man(a1-6)]Man(b1-4)GlcNAc(b1-4)GlcNAc
# In short: as §1
# [22] = target: GlcNAc(b1-2)[GlcNAc(b1-4)]Man(a1-3)[GlcNAc(b1-4)][GlcNAc(b1-2)[GlcNAc(b1-6)]Man(a1-6)]Man(b1-4)GlcNAc(b1-4)GlcNAc
# In short: as §1
binder,measurement,setting,value
B1,glycan array binding signal (z-score),Gal6S(b1-4)Glc6S,0.201
same,glycan array binding signal (z-score),Gal6S(b1-4)GlcNAc,-0.22
same,glycan array binding signal (z-score),Gal6S(b1-4)GlcNAc6S,0.015
same,glycan array binding signal (z-score),GalNAc(a1-3)Gal,0.413
same,glycan array binding signal (z-score),GalNAc(a1-3)GalNAc,-0.143
same,glycan array binding signal (z-score),[1],-0.27
same,glycan array binding signal (z-score),[2],-0.205
same,glycan array binding signal (z-score),GalNAc(b1-3)Gal,0.508
same,glycan array binding signal (z-score),[3],-0.112
same,glycan array binding signal (z-score),[4],-0.169
same,glycan array binding signal (z-score),[5],-0.215
same,glycan array binding signal (z-score),GalNAc(b1-3)GalNAc,-0.203
same,glycan array binding signal (z-score),GalNAc(b1-4)GlcNAc,-0.212
same,glycan array binding signal (z-score),[6],-0.281
same,glycan array binding signal (z-score),GalNAc(b1-6)GalNAc,-0.4
same,glycan array binding signal (z-score),Glc(a1-4)Glc,-0.234
same,glycan array binding signal (z-score),Glc(a1-6)Glc(a1-6)Glc,-0.197
same,glycan array binding signal (z-score),Glc(b1-4)Glc,-0.256
same,glycan array binding signal (z-score),Glc(b1-6)Glc,-0.358
same,glycan array binding signal (z-score),GlcA(b1-3)Gal,-0.198
same,glycan array binding signal (z-score),GlcA(b1-3)GlcNAc,6.02
same,glycan array binding signal (z-score),GlcA(b1-6)Gal,-0.177
same,glycan array binding signal (z-score),[7],0.089
same,glycan array binding signal (z-score),[8],-0.132
same,glycan array binding signal (z-score),[9],-0.073
same,glycan array binding signal (z-score),[10],-0.17
same,glycan array binding signal (z-score),[11],-0.023
same,glycan array binding signal (z-score),[12],-0.113
same,glycan array binding signal (z-score),[13],1.33
same,glycan array binding signal (z-score),[14],0.065
same,glycan array binding signal (z-score),[15],-0.279
same,glycan array binding signal (z-score),[16],-0.101
same,glycan array binding signal (z-score),[17],-0.167
same,glycan array binding signal (z-score),[18],-0.14
same,glycan array binding signal (z-score),[19],-0.121
same,glycan array binding signal (z-score),[20],-0.229
same,glycan array binding signal (z-score),[21],-0.212
same,glycan array binding signal (z-score),[22],0.006
